# Data from PMC4336329 (PLoS ONE, 2015).
# About 14,000 (4.5%) of roughly 310,000 compounds showed an effect of 50% or more. Effects have a minus sign here. This is one part of the list.
# Target: human ether-à-go-go-related gene (hERG) potassium channel (human, UniProt Q12809)
# Test: primary screen, population patch clamp on CHO cells stably expressing hERG
# 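Note: peak tail current of the secondary pulse compared with the same well before compound.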
# Chain of human ether-à-go-go-related gene (hERG) potassium channel (Q12809 whole entry, looked up): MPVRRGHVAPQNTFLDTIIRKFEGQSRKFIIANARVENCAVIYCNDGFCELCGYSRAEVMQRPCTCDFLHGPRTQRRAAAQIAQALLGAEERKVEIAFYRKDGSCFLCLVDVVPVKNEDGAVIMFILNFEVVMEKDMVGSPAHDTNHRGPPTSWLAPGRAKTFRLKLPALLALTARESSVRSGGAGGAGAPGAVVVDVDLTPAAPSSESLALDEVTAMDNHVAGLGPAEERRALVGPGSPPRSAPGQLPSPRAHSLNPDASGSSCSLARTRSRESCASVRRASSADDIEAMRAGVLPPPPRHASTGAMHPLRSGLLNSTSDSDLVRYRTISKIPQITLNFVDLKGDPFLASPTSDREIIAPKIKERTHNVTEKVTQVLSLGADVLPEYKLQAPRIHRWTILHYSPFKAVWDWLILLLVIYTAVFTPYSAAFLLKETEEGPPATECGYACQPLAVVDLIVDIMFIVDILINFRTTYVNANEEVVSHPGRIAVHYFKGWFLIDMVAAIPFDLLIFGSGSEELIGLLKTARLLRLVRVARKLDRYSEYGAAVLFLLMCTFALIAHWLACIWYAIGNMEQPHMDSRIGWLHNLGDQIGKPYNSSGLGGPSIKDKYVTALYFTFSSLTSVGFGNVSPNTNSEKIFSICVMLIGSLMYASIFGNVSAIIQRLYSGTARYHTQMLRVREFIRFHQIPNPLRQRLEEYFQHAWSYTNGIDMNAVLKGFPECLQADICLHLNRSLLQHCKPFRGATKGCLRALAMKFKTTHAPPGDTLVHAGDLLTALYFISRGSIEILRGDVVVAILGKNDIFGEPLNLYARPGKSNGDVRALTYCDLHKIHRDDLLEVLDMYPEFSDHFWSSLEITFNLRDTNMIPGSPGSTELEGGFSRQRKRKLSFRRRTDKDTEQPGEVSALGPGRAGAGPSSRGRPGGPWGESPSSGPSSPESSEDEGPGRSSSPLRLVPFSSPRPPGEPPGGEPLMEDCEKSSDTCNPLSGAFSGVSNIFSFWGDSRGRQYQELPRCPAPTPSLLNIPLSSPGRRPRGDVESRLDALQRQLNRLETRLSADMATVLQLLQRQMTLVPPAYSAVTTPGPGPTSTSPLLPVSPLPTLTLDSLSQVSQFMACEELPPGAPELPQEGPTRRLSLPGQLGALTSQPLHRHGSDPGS
row,Structure (SMILES),"hERG current change (%, negative = inhibition) at 10uM [%]"
1,c1cc(CCN2CCCC2)ccn1,-19.6
2,Cc1ccc(C(=O)Nc2nc(C)c(C)s2)o1,-12.3
3,Cc1cc(C)cc(OCC(=O)NCC2CCCO2)c1 (stereo not drawn),-11.8
4,CCN(CC)CCOC(=O)C1c2ccccc2Oc2ccccc21.Cl,-20.4
5,CCCOc1ccccc1C(=O)N(Cc1cccs1)C1CCS(=O)(=O)C1 (stereo not drawn),-12.1
6,CC1=C/C(=C\c2ccc3c(c2)OCO3)C(=O)S1,5.62
7,CSc1ccccc1OCc1cc(C(=O)N(C)C(C)c2nc(C)cs2)no1 (stereo not drawn),-63.6
8,C(=N\Nc1nc2ccccc2[nH]1)/c1ccncc1,-7.82
9,COc1cc(OC)cc(-c2nnc(SCC(=O)N(C(C)C)C(C)C)o2)c1,-13
10,O=C(Nc1ccccn1)c1ccc(C(=O)c2ccccc2)cc1,-16.1
11,COc1ccc(/C=N/NC(=O)c2ccc(F)cc2)cc1CN1CCc2cc(OC)c(OC)cc2C1C (stereo not drawn),-88.3
12,COc1ccc2c(c1)c(CC(=O)OC(C)C(=O)N(C)C)c(C)n2C(=O)c1ccc(Cl)cc1 (stereo not drawn),-25.7
13,Nn1c(SCC(=O)Nc2ccc3c(c2)OCO3)nncc1=O,10.5
14,CCOC(=O)Cc1c(C)nc2cc(-c3ccc(C(C)(C)C)cc3)[nH]n2c1=O,-7.42
15,CC(C)Oc1cccc(C(=O)O)c1,4.98
16,Cc1c(C)c2ccc(OCC(=O)N(C)C3CCS(=O)(=O)C3)c(C)c2oc1=O (stereo not drawn),9.53
17,CCCCN1CCC(C#N)(Nc2ccccc2)CC1,9.73
18,Cc1cc(NC(=O)CCCn2nc([N+](=O)[O-])c(Br)c2C)no1,-5.48
19,CCOc1ccc(NC(=S)NC(=O)/C=C/c2ccc(OC)cc2)c([N+](=O)[O-])c1,7.26

row,Structure (SMILES),"hERG current change (%, negative = inhibition) at 10uM [%]"
1,CCN(C(=O)COC(=O)/C=C/c1c(C)nn(-c2ccccc2)c1C)C1CCS(=O)(=O)C1 (stereo not drawn),-5.58
2,COc1cccc(-c2nc(=S)c3c(n2Cc2ccco2)CCCC3)c1,1.65
3,NCCCS(=O)(=O)O,12.6
4,Cc1cc(N2CCOCC2)nc2ccc(NC(=O)CCC(=O)N3CCN(c4ccccc4F)CC3)cc12,-18.6
5,CCn1c(O)c(/C=N/NC(=O)c2ccncc2)c(=O)[nH]c1=S,28.4
6,COc1cccc(NC(=O)c2cnc(SCC(=O)NCc3ccc4c(c3)OCO4)n(C)c2=O)c1,-15.1
7,CC1=NNC(=O)/C1=C\c1cn(-c2ccccc2)nc1-c1ccc(Cl)cc1,3.69
8,CC1=NN(c2ccccc2)C(=O)C1/C=C1\C(=O)NC(=O)N(c2cc(C)cc(C)c2)C1=O (stereo not drawn),6.47
9,Cc1cc(C)cc(CC2CC(=O)N(c3cc(C)on3)C2=O)c1 (stereo not drawn),0.808
10,CCOc1nc(Nc2ccc(OC)cc2OC)nc(OCC)n1,4.49
11,CC(C)OC(=O)CSc1nnc(-c2ccccn2)n1C,12.8
12,COc1cccc(NC(=O)CCNS(=O)(=O)c2ccc3c(c2)oc(=O)n3C)c1,3.22
13,O=C(CSc1ccc(-c2cccnc2)nn1)N1CCCCC1,4.55
14,Cn1nc(-c2ccccc2)nc1-c1ccccc1,-7.95
15,Cc1ccc(NS(=O)(=O)c2ccccc2[N+](=O)[O-])cc1C,11.8
16,Oc1c(C=Nc2cccnc2)sc2ccccc12,0.807
17,O=C(Cn1cc(S(=O)(=O)Cc2ccc([N+](=O)[O-])cc2)c2ccccc21)N1CCOCC1,-12.5
18,COc1ccc(/C=N/Nc2nc(-c3cccnc3)nc3ccccc23)cc1OC,-22.2
19,CCOC(=O)N1CCN(C(=O)c2ccc3nc(N4CCCCC4)sc3c2)CC1,-15.7

row,Structure (SMILES),"hERG current change (%, negative = inhibition) at 10uM [%]"
1,O=C(Cc1cccs1)NNC(=O)c1ccccc1Cl,-3.89
2,O=C(NCc1ccc2c(c1)OCO2)C12CC3CC(CC(C3)C1)C2,-20.7
3,CS(=O)(=O)N(CC(=O)Nc1ccc(CC#N)cc1)c1ccc(C23CC4CC(CC(C4)C2)C3)cc1,-0.0575
4,Cc1ccc(N2CC(C(=O)Nc3nnc(SCCN4CCOCC4)s3)CC2=O)cc1C (stereo not drawn),20.7
5,CN(C)Cc1nc2ccccc2c(=O)n1Cc1nc(-c2cccc([N+](=O)[O-])c2)cs1,-36.9
6,CN(C)CCCNC(=O)N1c2ccccc2Sc2ccccc21,1.39
7,Nc1nc(F)nc2c1ncn2[C@@H]1O[C@H](CO)[C@@H](O)[C@H]1O,19
8,CCOc1cc(C2C(C(=O)c3ccco3)=C(O)C(=O)N2CCc2ccccc2)ccc1O (stereo not drawn),2.76
9,CC(/C=N/N1CCN(c2ccc(C)cc2)CC1)=C\c1ccccc1,12
10,CCOC(=O)NN1C(=O)c2ccccc2NC1c1ccc(N(C)C)cc1 (stereo not drawn),-5.09
11,Cc1ccc(S(=O)(=O)ON2C(=O)c3ccccc3C2=O)c(C)c1,-7.42
12,COc1ccc(Cc2nc3ccccc3n2CC(=O)N/N=C/c2ccc(O)cc2)cc1OC,0.975
13,O=C(CCCc1nc(-c2ccccc2Cl)no1)N1CCOCC1,5.68
14,COc1ccc(CCC(=O)NCCOc2ccc(Cl)cc2)cc1,-7.98
15,O=C(NCc1ccccc1Cl)c1cnn2cccnc12,-3.22
16,CC1CC(C)CN(CCCNS(=O)(=O)c2ccc3c(c2)oc(=O)n3C)C1 (stereo not drawn),-3.19
17,COC(=O)C1C(=O)C2=C(CC1C)NC(=O)CC2c1cccc(C)c1 (stereo not drawn),-12.6
18,COc1ccc(C(C(=O)NCc2ccccc2)N(Cc2cccs2)C(=O)c2cnccn2)cc1 (stereo not drawn),-12.2
19,Cc1cc(OCC(=O)NN2C(=O)c3ccccc3C2=O)ccc1Cl,7.86
